Measurements published in PubChem BioAssay (NCATS).
The inconclusive results got no clear call from the source; some entries with a clear call stand among them for comparison. Potencies of inconclusive entries are left out as doubtful fits. Activity calls are given as the source filed them. Calls follow the shape of the dose curve; as a rule, active = well fitted inhibition curve with a large enough effect; inconclusive = small, poorly fitted or top-dose-only effect; inactive = flat fitted curve, though single readings scatter.
Potency is read from the fitted curve at half-maximal effect; tags tell the direction and shape of the fitted curve.

Each compound was assayed against Dual specificity protein kinase CLK4 (Homo sapiens) (UniProt Q9HAZ1) (assay: qHTS Assay for Inhibitors of CDC-like Kinase 4 (Kinase-Glo Assay) (AID 1770; also: nearly all actives have a fitted effect of over 65% in size)). Settings: recombinant Clk4, Kinase-Glo ATP depletion luminescence; series mostly up to 66.7 µM.
Chain of UniProt Q9HAZ1 (Q9HAZ1 whole entry, looked up): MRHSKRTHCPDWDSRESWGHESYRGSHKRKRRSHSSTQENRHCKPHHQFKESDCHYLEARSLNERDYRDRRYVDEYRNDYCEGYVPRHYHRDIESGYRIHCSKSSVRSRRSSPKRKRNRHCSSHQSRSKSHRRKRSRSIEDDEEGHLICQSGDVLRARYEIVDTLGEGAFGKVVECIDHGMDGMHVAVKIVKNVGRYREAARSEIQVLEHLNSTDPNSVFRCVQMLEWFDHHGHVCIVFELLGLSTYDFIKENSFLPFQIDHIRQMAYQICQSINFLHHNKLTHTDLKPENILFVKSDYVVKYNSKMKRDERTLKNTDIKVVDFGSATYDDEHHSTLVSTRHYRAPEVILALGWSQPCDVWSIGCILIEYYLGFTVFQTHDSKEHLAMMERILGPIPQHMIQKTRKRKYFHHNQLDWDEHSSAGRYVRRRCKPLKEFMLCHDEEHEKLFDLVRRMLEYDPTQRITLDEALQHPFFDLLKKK
Summary of the method: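 Luminescent ATP-depletion read-out (Kinase-Glo) after 4.5 h room-temperature reaction of Clk4 (25 nM final) with RS peptide (100 uM) and ATP (1 uM), pH 7.5 Tris buffer with MgCl2 and DTT.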
In the case of `COc1ccc2[nH]cc(CCNc3ccnc(-c4ccoc4)n3)c2c1`, the Potency is reported as active: 14.1 µM.
`Clc1ccccc1-c1nc(NCCN2CCOCC2)c2ccccc2n1` was tested, and the Potency was inconclusive [falling, partial curve].
`COc1ccc2[nH]cc(CCNc3ncncc3-c3cccnc3)c2c1` was tested, and the Potency was inconclusive [falling, partial curve].
`CN(Cc1ccco1)c1nc(-c2ccc3c(c2)OCO3)nc2ccccc12` was tested, and the Potency was inconclusive [falling, single point].
`COc1cccc(Nc2ncc3nc(C)c(=O)n(CCc4ccccc4)c3n2)c1` was tested, and the Potency was inconclusive [falling, full curve, poor fit].
In the case of `CN(Cc1ccco1)c1ncncc1-c1ccc2c(c1)OCO2`, the Potency is reported as inconclusive [falling, single point].
For `CN(Cc1ccco1)c1ccnc(-c2cccnc2)n1`, the Potency was inconclusive [falling, single point].
For `CNc1cc(-c2c(C)noc2C)ncn1`, the Potency was inconclusive [falling, partial curve].
In the case of `CN(C)c1ccc(-c2nc(NCCN3CCOCC3)c3ccccc3n2)cc1`, the Potency is reported as inconclusive [falling, partial curve].
With `Cn1cc(-c2nc3cnc(OCc4ccccc4)nc3n(CCC#N)c2=O)c2ccccc21` the Potency was “inactive”.
For `O=c1c(-c2cc(F)cc(F)c2)nc2cncnc2n1-c1ccccc1`, the Potency was “inactive”.
With `Cn1cc(-c2nc3cncnc3n(Cc3ccccc3Cl)c2=O)c2ccccc21` the Potency was “inactive”.
